Source: patent publication US5795859A (priority 1991, dated 1998)
Where two headings read alike, the source gives them in different places. At least one peptide structure holds a part that was inferred or is arguable (an end, a ring closure or a residue). Ends that are not written are not given here.

Tests used:
human neutrophils [1] = experiment: Direct induction of neutrophil chemiluminescence by TNF; assay type: cell-based; settings: for IN VITRO NEUTROPHIL TNF DIRECT: inhibition of TNF-induced chemiluminescence, * heightened activity, ** activity at low but not high peptide concentrations
[2] = system: WEHI 164 fibrosarcoma cells; experiment: In vitro cytotoxicity on WEHI 164 cells; assay type: cell-based; settings: peptide at 50 ug/culture (200 ug/ml); versus untreated control cells; means of quadruplicates
human neutrophils [3] = settings: peptide alone
human neutrophils [4] = experiment: TNF priming of neutrophils for the fMLP chemiluminescence response; assay type: cell-based; settings: for inhibition of TNF priming of human neutrophils: in words, response to fMLP; for IN VITRO NEUTROPHIL TNF PRIMING: inhibition of TNF priming for fMLP response
human neutrophils [5] = experiment: Direct induction of neutrophil chemiluminescence by LPS; assay type: cell-based; settings: for inhibition of LPS-induced respiratory burst / chemiluminescence: in words; for IN VITRO NEUTROPHIL LPS DIRECT: inhibition of LPS-induced chemiluminescence
human neutrophils [6] = experiment: LPS priming of neutrophils for the fMLP chemiluminescence response; assay type: cell-based; settings: inhibition of LPS priming for fMLP response
[7] = 1 ug/10^6 cells, 0 ug control 0.37 (0.34 for 1, 1.02 for 275)

Molecule	IN VITRO NEUTROPHIL TNF DIRECT (human neutrophils [1])	% VIABLE CELLS [2] [%]	lucigenin dependent chemiluminescence, peak of response (human neutrophils [3]; [7]) [mV]	lucigenin dependent chemiluminescence, peak of response (human neutrophils [3]; 10 ug/10^6 cells) [mV]	lucigenin dependent chemiluminescence, peak of response (human neutrophils [3]; 100 ug/10^6 cells) [mV]	other results
CC(C)[C@H](NC(=O)[C@@H]1CCCN1C(=O)[C@H](CCCCN)NC(=O)[C@H](CC(=O)O)NC(=O)[C@H](CO)NC(=O)[C@@H]1CCCN1)C(=O)N[C@@H](C)C(=O)N[C@@H](Cc1c[nH]cn1)C(=O)O [Peptide 10, PRO SER ASP LYS PRO VAL ALA HIS]	+ (Results were deemed positive if at least 50% inhibition of chemiluminescence was obtained in at least two thirds of cases)	–	–	–	–	–
AEGQLQWLNRRANALLANG [Peptide 307, ALA GLU GLY GLN LEU GLN TRP LEU ASN ARG ARG ALA ASN ALA LEU LEU ALA ASN GLY]	–	100	0.35	0.37	0.42	–
AKPWYEPIYL [Peptide 275, ALA LYS PRO TRP TYR GLU PRO ILE TYR LEU]	–	100	0.99	0.69	0.43	lucigenin dependent chemiluminescence, peak of response (human neutrophils [3]; 500 ug/10^6 cells): 0.80 mV
DKPVAHVVA [Peptide 5, ASP LYS PRO VAL ALA HIS VAL VAL ALA]	+ (Results were deemed positive if at least 50% inhibition of chemiluminescence was obtained in at least two thirds of cases)	–	–	–	–	–
GLYLIYSQVLFKGQG [Peptide 308, GLY LEU TYR LEU ILE TYR SER GLN VAL LEU PHE LYS GLY GLN GLY]	–	42.2	0.91	1.80	49.52	–
HVLLTHTISRIAVSYQTKVNLL [Peptide 309, HIS VAL LEU LEU THR HIS THR ILE SER ARG ILE ALA VAL SER TYR GLN THR LYS VAL ASN LEU LEU]	–	92.8	0.38	0.98	13.44	–
LFKGQGCPSTHVLLTHTISRI [Peptide 304, LEU PHE LYS GLY GLN GLY CYS PRO SER THR HIS VAL LEU LEU THR HIS THR ILE SER ARG ILE]	–	100	0.18	0.43	2.56	lucigenin dependent chemiluminescence, peak of response (human neutrophils [3]; 500 ug/10^6 cells): 2.76 mV
LRDNQLVVPSEGLYLI [Peptide 302, LEU ARG ASP ASN GLN LEU VAL VAL PRO SER GLU GLY LEU TYR LEU ILE]	–	48.7	0.15	0.18	0.29	–
LSAEINRPDYLDFAESGQV [Peptide 305, LEU SER ALA GLU ILE ASN ARG PRO ASP TYR LEU ASP PHE ALA GLU SER GLY GLN VAL]	–	72.7	0.27	0.36	0.24	–
LSAIKSPKQRETPEGA [Peptide 303, LEU SER ALA ILE LYS SER PRO LYS GLN ARG GLU THR PRO GLU GLY ALA]	–	–	0.22	0.17	0.22	–
PSDKPVAHV [Peptide 9, PRO SER ASP LYS PRO VAL ALA HIS VAL]	–	–	–	–	–	inhibition of TNF-induced respiratory burst / chemiluminescence (human neutrophils [1]; in words): dose-dependent effects
PSDKPVAHVVA [Peptide 14, PRO SER ASP LYS PRO VAL ALA HIS VAL VAL ALA]	+ (Results were deemed positive if at least 50% inhibition of chemiluminescence was obtained in at least two thirds of cases)	–	–	–	–	–
RTPSAKPVAHVVA [Peptide 19, ARG THR PRO SER ALA LYS PRO VAL ALA HIS VAL VAL ALA]	+ (Results were deemed positive if at least 50% inhibition of chemiluminescence was obtained in at least two thirds of cases)	–	–	–	–	inhibition of TNF priming of human neutrophils (human neutrophils [4]): inhibition; IN VITRO NEUTROPHIL TNF PRIMING (human neutrophils [4]): + (Results were deemed positive if at least 50% inhibition of chemiluminescence was obtained in at least two thirds of cases); inhibition of LPS-induced respiratory burst / chemiluminescence (human neutrophils [5]): inhibition; IN VITRO NEUTROPHIL LPS DIRECT (human neutrophils [5]): + (Results were deemed positive if at least 50% inhibition of chemiluminescence was obtained in at least two thirds of cases); IN VITRO NEUTROPHIL LPS PRIMING (human neutrophils [6]): + (Results were deemed positive if at least 50% inhibition of chemiluminescence was obtained in at least two thirds of cases)
RTPSDKPVAHVV [Peptide 8, ARG THR PRO SER ASP LYS PRO VAL ALA HIS VAL VAL]	+ (Results were deemed positive if at least 50% inhibition of chemiluminescence was obtained in at least two thirds of cases)	–	–	–	–	–
RTPSDKPVAHVVANPQAEGQL [Peptide 26, ARG THR PRO SER ASP LYS PRO VAL ALA HIS VAL VAL ALA ASN PRO GLN ALA GLU GLY GLN LEU]	+ (Results were deemed positive if at least 50% inhibition of chemiluminescence was obtained in at least two thirds of cases)	–	–	–	–	–
RTPSKDPVAHVVA [Peptide 21, ARG THR PRO SER LYS ASP PRO VAL ALA HIS VAL VAL ALA]	+ (Results were deemed positive if at least 50% inhibition of chemiluminescence was obtained in at least two thirds of cases)	–	–	–	–	inhibition of TNF priming of human neutrophils (human neutrophils [4]): inhibition; IN VITRO NEUTROPHIL TNF PRIMING (human neutrophils [4]): + (Results were deemed positive if at least 50% inhibition of chemiluminescence was obtained in at least two thirds of cases); inhibition of LPS-induced respiratory burst / chemiluminescence (human neutrophils [5]): inhibition; IN VITRO NEUTROPHIL LPS DIRECT (human neutrophils [5]): + (Results were deemed positive if at least 50% inhibition of chemiluminescence was obtained in at least two thirds of cases); IN VITRO NEUTROPHIL LPS PRIMING (human neutrophils [6]): + (Results were deemed positive if at least 50% inhibition of chemiluminescence was obtained in at least two thirds of cases)
TISRIAVSYQT [Peptide 323, THR ILE SER ARG ILE ALA VAL SER TYR GLN THR]	–	–	0.23	0.17	0.47	–
TPSDKPVAHVVA [Peptide 13, THR PRO SER ASP LYS PRO VAL ALA HIS VAL VAL ALA]	+ (Results were deemed positive if at least 50% inhibition of chemiluminescence was obtained in at least two thirds of cases)	–	–	–	–	–
VAHVVANPQAEGQL [Peptide 306, VAL ALA HIS VAL VAL ALA ASN PRO GLN ALA GLU GLY GLN LEU]	–	100	0.27	0.35	0.23	–
VRSSSRTPSDKPVAHVVANPQAEGQL [Peptide 4, VAL ARG SER SER SER ARG THR PRO SER ASP LYS PRO VAL ALA HIS VAL VAL ALA ASN PRO GLN ALA GLU GLY GLN LEU]	+ (Results were deemed positive if at least 50% inhibition of chemiluminescence was obtained in at least two thirds of cases)	–	–	–	–	–
VRSSSRTPSDKPVAQVVA [Peptide 23, VAL ARG SER SER SER ARG THR PRO SER ASP LYS PRO VAL ALA GLN VAL VAL ALA]	+ (Results were deemed positive if at least 50% inhibition of chemiluminescence was obtained in at least two thirds of cases)	–	–	–	–	–
VRSSSRTPSDKPVARVVA [Peptide 22, VAL ARG SER SER SER ARG THR PRO SER ASP LYS PRO VAL ALA ARG VAL VAL ALA]	+ (Results were deemed positive if at least 50% inhibition of chemiluminescence was obtained in at least two thirds of cases)	–	–	–	–	IN VITRO NEUTROPHIL TNF PRIMING (human neutrophils [4]): + (Results were deemed positive if at least 50% inhibition of chemiluminescence was obtained in at least two thirds of cases)
VRSSSRTPSDKPVVHVVA [Peptide 25, VAL ARG SER SER SER ARG THR PRO SER ASP LYS PRO VAL VAL HIS VAL VAL ALA]	+ (Results were deemed positive if at least 50% inhibition of chemiluminescence was obtained in at least two thirds of cases)	–	–	–	–	–
